Experimental findings from publication PMC4336329 (PLoS ONE, 2015) are described below.

Structures are written as SMILES. Screen size: about 310,000 compounds; about 14,000 (4.5%) showed an effect of 50% or more. Effects have a minus sign here. The list shows a part of the results.
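Further: peak tail current of the secondary pulse compared with the same well before compound.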

The target of this experiment is human ether-à-go-go-related gene (hERG) potassium channel (human, UniProt Q12809). Nature of the experiment: primary screen, population patch clamp on CHO cells stably expressing hERG.
human ether-à-go-go-related gene (hERG) potassium channel, sequence (Q12809 whole entry, looked up): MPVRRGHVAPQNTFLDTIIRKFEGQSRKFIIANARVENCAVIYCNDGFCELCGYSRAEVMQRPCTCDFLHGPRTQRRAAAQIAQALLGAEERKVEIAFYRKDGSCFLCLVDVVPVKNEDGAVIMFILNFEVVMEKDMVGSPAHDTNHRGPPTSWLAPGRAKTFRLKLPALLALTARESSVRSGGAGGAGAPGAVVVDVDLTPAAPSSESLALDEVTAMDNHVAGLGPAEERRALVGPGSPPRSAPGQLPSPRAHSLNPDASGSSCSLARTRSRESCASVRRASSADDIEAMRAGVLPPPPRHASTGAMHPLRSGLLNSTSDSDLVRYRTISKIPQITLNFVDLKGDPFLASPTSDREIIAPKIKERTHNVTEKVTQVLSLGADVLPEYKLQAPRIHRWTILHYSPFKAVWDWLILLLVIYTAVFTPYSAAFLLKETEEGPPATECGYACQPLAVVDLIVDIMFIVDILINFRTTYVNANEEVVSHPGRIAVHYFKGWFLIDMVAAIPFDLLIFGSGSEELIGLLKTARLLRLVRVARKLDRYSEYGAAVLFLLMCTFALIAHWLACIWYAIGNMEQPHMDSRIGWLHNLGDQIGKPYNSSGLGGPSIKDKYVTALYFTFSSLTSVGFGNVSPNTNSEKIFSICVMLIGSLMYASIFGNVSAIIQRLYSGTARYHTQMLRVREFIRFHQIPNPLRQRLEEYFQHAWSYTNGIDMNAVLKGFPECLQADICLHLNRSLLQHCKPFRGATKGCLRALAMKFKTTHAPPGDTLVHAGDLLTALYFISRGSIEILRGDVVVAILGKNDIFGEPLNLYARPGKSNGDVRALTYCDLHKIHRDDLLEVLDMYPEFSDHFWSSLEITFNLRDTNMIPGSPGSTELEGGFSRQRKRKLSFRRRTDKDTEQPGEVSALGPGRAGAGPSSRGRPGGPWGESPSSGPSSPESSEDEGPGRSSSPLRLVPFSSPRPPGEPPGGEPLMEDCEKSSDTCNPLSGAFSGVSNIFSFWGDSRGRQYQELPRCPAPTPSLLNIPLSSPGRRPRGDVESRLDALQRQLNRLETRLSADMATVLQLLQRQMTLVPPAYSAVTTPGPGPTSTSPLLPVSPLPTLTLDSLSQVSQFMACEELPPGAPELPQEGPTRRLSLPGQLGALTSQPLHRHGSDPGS
On to `Cc1cc(SCC(=O)c2ccc(O)c(O)c2)n2nc(C)c(-c3ccccc3)c2n1`, for which the “hERG current change (%, negative = inhibition) at 10uM” value was determined as 18.1%. Regarding `Cc1cccc(-c2nc3c(c(SCC(=O)N4CCOCC4)n2)COC(C)(C)C3)c1`, the “hERG current change (%, negative = inhibition) at 10uM” value is given as -10.7%. Next, `O=C1CSC(c2ccc(Cl)cc2)N1C1CCCCC1` (stereo not shown): -14.4%; `CN(C)S(=O)(=O)c1ccc(C(=O)N2CCCC2c2nc3ccccc3s2)cc1` (stereo not shown): 0.54%.

On to `Cc1ccc(CNC(=O)CCS(=O)(=O)Cc2ccc(C)cc2)cc1`, for which the “hERG current change (%, negative = inhibition) at 10uM” value is 13.1%. With `CCCCOc1ccc(-c2c(C(=O)Nc3ccccc3)c(C)[nH]c(=S)c2C#N)cc1` the figure was 12.1%. Next, `CCOC(=O)c1cccc(NC(=O)CNS(=O)(=O)c2cccs2)c1`: -4.88%.

As for `Cc1ccc(NCc2ccc(C)s2)cc1`, the “hERG current change (%, negative = inhibition) at 10uM” value is 16.7%. `CN(Cc1ccc(OC(F)F)cc1)C(=O)c1ccccc1Sc1ccccc1C#N`: the “hERG current change (%, negative = inhibition) at 10uM” value is given as -60.5%.

Regarding `O=C(Cn1ccc2ccccc2c1=O)NCC(=O)N1CCCCC1`, the “hERG current change (%, negative = inhibition) at 10uM” value worked out at 28.3%. With `C=CCn1c(SCC(=O)Nc2cccnc2Cl)nnc1-c1ccc(Cl)cc1` the figure was -45.4%; with `COc1ccc(C(=O)NC2CC(C)(C)NC(C)(C)C2)cc1OC`, 21.4%; with `CCCCNC(=O)c1c(CSc2ccccc2)noc1C(=O)NCc1ccccc1`, 28.1%. With `Cc1cccc(NC(=O)CN2C(=O)c3ccccc3C2=O)c1C` the figure was 0.742%. Next, `CC(C)NC(=O)Cn1nc(C(F)(F)F)c2c1CCC2`: 7.42%; `CC1=C(C(=O)O)N2C(=O)C(NC(=O)Cc3ccccc3)C2SC1` (stereo not shown): 8.13%; `Cc1cc2nn(-c3ccc(F)cc3)nc2cc1N`: 17.4%. On to `CCCc1ccc(OCc2ccc(C(=O)NN)o2)c(OC)c1`, for which the “hERG current change (%, negative = inhibition) at 10uM” value is on record as 4.83%. With `CC(O)CNC(=S)Nc1ccccc1` (stereo not shown) the figure was 3.24%.

For `CCOC(=O)C1CCN(C(=O)CCNS(=O)(=O)c2cc(Br)cnc2N)CC1`, the “hERG current change (%, negative = inhibition) at 10uM” value is given as -9.33%. With `CC(Sc1ccccc1)C(=O)NCC1COc2ccccc2O1` (stereo not shown) the figure was -13.8%; with `COCC(C)NC(=O)CSc1nc2nn(-c3ccccc3)c(=O)c-2c2n1CCCCC2` (stereo not shown), 8.5%. For the molecule `CC(=O)Nc1ccc(S(=O)(=O)Nc2nccs2)cc1`, the “hERG current change (%, negative = inhibition) at 10uM” value worked out at 11%. Regarding `C[C@@H](CC#N)CN1CC[C@H](C(C)(C)C)CCC1=O`, the “hERG current change (%, negative = inhibition) at 10uM” value came to 0.574%. Next, `COCCN1Cc2cccc(C(=O)NC3CCCCCC3)c2C1=O`: -19.6%; `O=C1NC(NS(=O)(=O)c2ccc(Cl)cc2)(C(F)(F)F)C(=O)N1Cc1cccnc1` (stereo not shown): 10.4%; `CCN(Cc1ccccc1)C(=O)Cn1c(=O)oc2ccccc21`: 23.1%. Regarding `COc1cccc(CNC(=O)CCC2CCCN(C(=O)c3ccc(F)c(Cl)c3)C2)c1` (stereo not shown), the “hERG current change (%, negative = inhibition) at 10uM” value is recorded as -16.6%.

On to `CN(C)/C=N/c1ncc(C(=O)c2ccc(Cl)cc2)s1`, for which the “hERG current change (%, negative = inhibition) at 10uM” value is recorded as -12.2%. With `CC1(NC(=O)N2CCCCC2)CCS(=O)(=O)C1` (stereo not shown) the figure was 9.71%; with `O=C1CSC(c2cn(-c3ccccc3)nc2-c2cc3ccccc3oc2=O)N1Cc1cccnc1` (stereo not shown), -41.6%; with `Cc1cccc(C)c1NC(=O)N1C2CCCC1CC(NC(=O)C(C)(C)C)C2` (stereo not shown), 10.2%. With `Nc1nonc1-n1nnc(C(=O)N/N=C/c2c(F)cccc2Cl)c1-c1ccc2c(c1)OCO2` the figure was 9.15%; with `Cc1ccsc1/C=N/NC(=O)C(=O)NCC(C)C`, 6.07%. With `Cc1c(NC(=O)CSc2nnc(-c3cccnc3)n2N)c(=O)n(-c2ccccc2)n1C` the figure was 9.79%; with `COC(=O)\C(C(C)=O)=C(/C=C/C=C/N(C)C)N(C)C`, 4.11%. Turning to `Cc1nc2ccc(S(=O)(=O)NC(C(=O)NCc3ccco3)C(C)C)cc2s1` (stereo not shown), the “hERG current change (%, negative = inhibition) at 10uM” value was determined as 0.871%. With `Cc1ccc2nc(NCc3ccc(F)cc3)c3nncn3c2c1` the figure was 2.23%. Next, `COc1ccccc1NC(=O)CNC(=O)c1ccc([N+](=O)[O-])cc1`: -22%; `Cc1nn(CCCC(=O)Nc2cc(Oc3ccccc3)cc([N+](=O)[O-])c2)c(C)c1[N+](=O)[O-]`: 7.24%; `Cc1ccc(S(=O)(=O)N[C@@H](CC(C)C)C(=O)NCc2ccco2)cc1`: -11.9%.

On to `ON=C1/C(=N\O)CC2(C/C1=N/O)OCCO2`, for which the “hERG current change (%, negative = inhibition) at 10uM” value was -7.01%. `CC(C)c1ccc2[nH]c(O)c(N=NC(=O)c3cccc(S(=O)(=O)Nc4ccc(Cl)cc4)c3)c2c1`: the “hERG current change (%, negative = inhibition) at 10uM” value amounted to 17.9%.

On to `CC(=O)C(/C=N/c1cc(-c2ccc(C)cc2)nn1-c1ccccc1)=C(\C)O`, for which the “hERG current change (%, negative = inhibition) at 10uM” value is -3.1%. For the molecule `N=C1/C(=C\c2ccc(OC(=O)c3ccccc3Cl)cc2)C(=O)N=C2SC(N3CCOCC3)=NN12`, the “hERG current change (%, negative = inhibition) at 10uM” value was determined as 6.71%. Next, `COc1ccc(CNC(=O)C(C)N2CCN(c3ccc(C(C)=O)cc3)CC2)cc1` (stereo not shown): -55.1%; `Fc1cccc(/C=C2\CCCC3=C2NC(=S)NC3c2cccc(F)c2)c1` (stereo not shown): 18.7%; `CCCN(CC(=O)Nc1ccccc1C)C(=O)c1ccc(N2CCCCCC2)c([N+](=O)[O-])c1`: 1.97%. With `COCCOC(=O)c1c(NC(=O)COC(=O)c2ccc(C)o2)sc(C(N)=O)c1C` the figure was -10.9%. Next, `COC(=O)c1cc(S(=O)(=O)NCCc2cccc(C)c2)cn1C`: -0.156%.

Regarding `O=C(Nc1ccc(F)cc1)Nc1ccc(N2CCCC2)c(S(=O)(=O)Nc2ccccc2Cl)c1`, the “hERG current change (%, negative = inhibition) at 10uM” value turned out to be 17%. With `O=C(Nc1nnc(CCc2ccccc2)s1)c1cccc(F)c1` the figure was 18.7%. With `Cc1csc(=O)n1CC(=O)OCC(=O)Nc1ccc(C(N)=O)cc1` the figure was 11.2%; with `Cc1ccc(NC(=S)Nc2ccc3nc(-c4ccccn4)c(-c4ccccn4)nc3c2)cc1C`, -5.29%.

With `COC(=O)c1ccccc1NC(=O)c1ccc[nH+]c1.[Cl-]`, the “hERG current change (%, negative = inhibition) at 10uM” value was found to be 6.72%.
